Laboratory results reported in PubChem BioAssay AID1159614 (National Center for Advancing Translational Sciences (NCATS), 2016).
Out of some 45,000 compounds screened, about 65 (0.1%) were called active. Calls follow the shape of the dose curve; as a rule, active = well fitted activation curve with a large enough effect; inconclusive = small, poorly fitted or top-dose-only effect; inactive = no such curve, though single readings can be large or run the other way. The list shows a part of the results.

Target: Galactocerebrosidase (Homo sapiens) (UniProt P54803)
Experiment: A Novel Cell-Based Assay to Identify Small Molecules for B -Galactocerebrosidase; also: 0% is about no effect; nearly all actives have a fitted effect of over 65% in size
Settings: 145M-Twi-hGALC-G270D cells, HMU-beta-Gal fluorescence, 48 h; series mostly up to 57.5 µM; activation: at the top concentration
Outline: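 qHTS, 1536-well; 145M-Twi-hGALC-G270D cells (WT line also made) in DMEM/F12 + 10% FBS; compound incubation on live cells; HMU-β-gal 0.1 mM final, pH 5.2, NaTC; carbonate stop; fluorescence increase = enhanced residual activity.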

Chain of UniProt P54803 (P54803 whole entry, looked up): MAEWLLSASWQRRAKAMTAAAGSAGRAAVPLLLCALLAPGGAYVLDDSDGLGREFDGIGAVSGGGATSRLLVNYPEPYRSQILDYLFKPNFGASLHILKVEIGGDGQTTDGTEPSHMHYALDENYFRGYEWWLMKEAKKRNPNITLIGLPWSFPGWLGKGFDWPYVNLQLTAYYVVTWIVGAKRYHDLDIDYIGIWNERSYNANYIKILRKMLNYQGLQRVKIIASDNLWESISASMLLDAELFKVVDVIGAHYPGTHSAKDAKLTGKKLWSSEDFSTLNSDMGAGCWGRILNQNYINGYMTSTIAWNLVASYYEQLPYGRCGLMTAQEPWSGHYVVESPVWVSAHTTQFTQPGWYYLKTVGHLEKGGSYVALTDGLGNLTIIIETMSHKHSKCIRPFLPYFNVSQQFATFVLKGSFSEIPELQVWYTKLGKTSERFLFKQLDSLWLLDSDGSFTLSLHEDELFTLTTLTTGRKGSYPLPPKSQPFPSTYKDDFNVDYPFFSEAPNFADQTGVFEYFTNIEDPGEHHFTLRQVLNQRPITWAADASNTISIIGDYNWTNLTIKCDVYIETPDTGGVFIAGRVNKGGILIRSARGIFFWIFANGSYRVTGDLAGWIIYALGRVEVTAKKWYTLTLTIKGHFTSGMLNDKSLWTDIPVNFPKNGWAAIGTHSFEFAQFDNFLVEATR

activation, inactive:
O=C(CCc1ccccc1)N(Cc1cccnc1)c1nc2ccc(F)cc2s1 -8.03%
O=C(Cn1cc(SCc2ccc(F)cc2)c2ccccc21)N1CCCCCC1 -15.2%
N#Cc1c(-c2ccccc2)cc(-c2ccccc2)nc1SCC(O)CS(=O)(=O)Cc1ccccc1 (stereo not drawn) -19.7%
CCN(CC)C(=O)CSc1nc2c(c(=O)n(C)c(=O)n2C)n1Cc1ccccc1 -8.07%
CCOc1ccc(NC(=O)c2cnn(-c3ccccc3)c2-n2cccc2)cc1 -11.7%
CCCN(Cc1cccs1)C(=O)Nc1cc(C)cc(C)c1 -5.79%
Cc1nn(C)c2c1c(-c1ccccc1)cc(=O)n2Cc1ccc(F)cc1Cl -4.94%
CCN(CC)C(=O)Cn1c(=O)n(-c2ccc(Cl)cc2)c(=O)c2c3c(sc21)CCCCC3 0.388%
CCOc1ccc(CCNC(=O)CCn2c(=O)c3cccn3c3ccc(F)cc32)cc1OCC -10.3%
COc1ccc(-c2nc3ccccc3o2)cc1NC(=O)c1cccc2c(Cl)cccc12 -4.13%
COc1ccc(NC(=O)CC2C(=O)N(c3ccc(OC)cc3)C(=O)N2Cc2ccc(OC)c(OC)c2)cc1 (stereo not drawn) -20.2%
CCOc1ccc(N2CC(NC(=O)Cc3cccs3)CC2=O)cc1 (stereo not drawn) 4.03%
CN(Cc1ccccc1)c1ccc2cc(S(=O)(=O)N3CCCCC3)ccc2n1 -6.68%
Cc1ccc(C)c(CSc2cn(CC(=O)N3CCCC3)c3ccccc23)c1 -5.2%
COc1ccc2cc(-c3nc(-c4ccc(N(C)C)cc4)no3)c(=O)oc2c1 -11%
CCOc1ccc(NC(=O)CCc2c(C)nc3c4c(C)cc(C)nc4nn3c2C)cc1 -4.3%
Cc1c(C(=O)N(C)Cc2ccccc2)sc2nc(-c3ccc(F)cc3)cn12 -14.4%
CC(NCc1ccc2c(c1)n(C)c(=O)n2C)c1ccccc1 (stereo not drawn) -34.7%
COc1cc(NC(=O)CSc2cc(=O)n(C)c3ccccc23)cc(OC)c1OC -25.9%
COc1ccc(N2CCN(C(=O)c3ccc4c(c3)CCN4S(=O)(=O)c3ccccc3)CC2)cc1 -5.71%
CCC12CN3CC(CC)(CN(C1)C3c1c[nH]c3ccccc13)C2=O (stereo not drawn) -2.26%
Cc1noc2ncnc(NCCc3ccccc3)c12 -12.1%
COCCCNC(=O)C1CCN(Cc2cc3ccccc3n2Cc2cccc(Cl)c2)CC1 4.34%
Cc1ccc(-c2cn3c(n2)sc2cc(C(=O)NC4CCCCCC4)ccc23)cc1 -7.49%
Cc1cc(C)n2nc(CNC(=O)c3cccc(N(C)C)c3)nc2n1 0.975%
COc1ccc(Br)cc1CNC(=O)C1CCN(c2nnc(-n3cccc3CNc3ccc(C)cc3)s2)CC1 0.362%
CSc1nn(CC(=O)Nc2ccc(C)cc2C)c(N)c1S(=O)(=O)c1ccc(Cl)cc1 -9.35%
CCn1cc(C(=O)N(C)c2cc(C)ccc2C)c2cc(OC)c(OC)cc2c1=O -9.42%
O=S(=O)(Nc1nc2n(n1)C(c1ccc(F)cc1)C=C(c1ccc(Cl)cc1)N2)c1ccccc1 (stereo not drawn) -12.2%
COc1ccc(NS(=O)(=O)c2ccc3c(c2)CC(C)N3C(=O)C2CCC2)cc1OC (stereo not drawn) -15.9%
Cc1ccc(NS(=O)(=O)c2ccc3nc(-c4ccccc4)[nH]c3c2)cc1Cl 7.81%
CCOc1ccccc1NC(=O)C1CCCN(S(=O)(=O)c2cccs2)C1 (stereo not drawn) -13.3%
COc1cc2c(C(=O)N3CCN(c4ccc(F)cc4)CC3)cn(CC(C)C)c(=O)c2cc1OC -2.59%
